Reference: PMC4336329 (PLoS ONE, 2015)
Out of some 310,000 compounds screened, about 14,000 (4.5%) showed an effect of 50% or more. Effects have a minus sign here. The list shows a part of the results.

Each molecule was assayed against human ether-à-go-go-related gene (hERG) potassium channel (human, UniProt Q12809) (assay: primary screen, population patch clamp on CHO cells stably expressing hERG).
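Note: peak tail current of the secondary pulse compared with the same well before compound.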

Chain of human ether-à-go-go-related gene (hERG) potassium channel (Q12809 whole entry, looked up): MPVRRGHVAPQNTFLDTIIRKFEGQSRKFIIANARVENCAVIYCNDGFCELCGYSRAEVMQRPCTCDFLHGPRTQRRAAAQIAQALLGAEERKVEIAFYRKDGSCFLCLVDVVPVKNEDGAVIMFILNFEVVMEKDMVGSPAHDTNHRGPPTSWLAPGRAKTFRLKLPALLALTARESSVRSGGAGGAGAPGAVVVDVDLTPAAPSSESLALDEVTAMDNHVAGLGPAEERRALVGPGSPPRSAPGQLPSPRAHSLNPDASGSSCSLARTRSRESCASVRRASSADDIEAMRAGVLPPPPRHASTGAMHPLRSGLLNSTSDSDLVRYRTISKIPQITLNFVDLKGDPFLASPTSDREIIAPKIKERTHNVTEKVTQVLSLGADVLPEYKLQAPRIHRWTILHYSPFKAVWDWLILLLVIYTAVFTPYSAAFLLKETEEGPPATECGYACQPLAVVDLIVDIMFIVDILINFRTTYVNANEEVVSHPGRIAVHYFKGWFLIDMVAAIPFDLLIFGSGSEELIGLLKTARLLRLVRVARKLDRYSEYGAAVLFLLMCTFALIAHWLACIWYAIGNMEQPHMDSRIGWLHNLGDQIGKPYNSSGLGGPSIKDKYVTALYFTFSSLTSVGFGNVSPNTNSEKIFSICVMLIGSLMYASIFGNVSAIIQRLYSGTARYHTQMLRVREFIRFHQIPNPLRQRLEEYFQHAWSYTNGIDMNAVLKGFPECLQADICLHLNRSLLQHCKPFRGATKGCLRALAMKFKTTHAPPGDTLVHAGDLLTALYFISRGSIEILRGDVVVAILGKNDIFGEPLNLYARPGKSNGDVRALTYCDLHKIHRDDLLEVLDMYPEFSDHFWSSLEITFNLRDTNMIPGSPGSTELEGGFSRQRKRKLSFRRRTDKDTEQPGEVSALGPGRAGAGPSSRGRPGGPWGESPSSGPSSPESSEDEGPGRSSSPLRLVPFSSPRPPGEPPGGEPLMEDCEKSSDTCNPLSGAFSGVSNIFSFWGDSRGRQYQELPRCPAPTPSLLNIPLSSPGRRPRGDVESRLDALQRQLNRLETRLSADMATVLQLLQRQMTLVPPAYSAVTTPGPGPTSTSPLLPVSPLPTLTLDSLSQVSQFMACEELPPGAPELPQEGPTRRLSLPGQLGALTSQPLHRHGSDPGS

SMILES | hERG current change (%, negative = inhibition) at 10uM [%]
CCn1c(O)c(N=NC(=O)c2cccs2)c2ccccc21 | 12.7
CC(=O)Nc1ccc(NC(=O)CSc2nnc(COc3ccccc3C)n2CC2CCCO2)cc1 (centres unmarked) | 4.2
CCOCCn1c(COc2ccc(C)cc2)nc2ccccc21 | -52.6
COC(=O)c1c(C)[nH]c(C(=O)CN2C(=O)NC3(CCOc4ccccc43)C2=O)c1C (centres unmarked) | -4.52
CCOC(=O)C1(CC)NC(c2ccco2)C2C(=O)N(C)C(=O)C21 (centres unmarked) | 19.7
Cc1cc(C)c(S(=O)(=O)n2c([N+](=O)[O-])cnc2C)c(C)c1 | 27.9
O=c1oc(-c2ccc([N+](=O)[O-])cc2)nc2ccccc12 | 18.2
CCOC(=O)NC1(NC2CCCCC2)Oc2ccccc2O1 | -4.53
O=C(NN1C(=O)C2C(C1=O)C1C=CC2C12CC2)c1ccccc1Cl (centres unmarked) | 7
Cc1ccc2c(C(=O)CN3CC(C)CC(C)C3)c(C)[nH]c2c1 (centres unmarked) | -51
COc1cc(OC)cc(C(=O)NCC(=O)OCC(=O)c2cc(C)n(Cc3ccco3)c2C)c1 | 2.97
CCn1c(-c2ccccc2O)n[nH]c1=S | 33.5
CCOc1ccccc1CNC(=O)CCCc1cn(C)c2ccccc12 | -2.65
CCc1ccc(OCC(=O)N/N=C(\C)c2ccc(OC(F)F)cc2)cc1 | -2.15
CCCC(=O)Nc1ccc(S(=O)(=O)Nc2cc(C)nc(C)n2)cc1 | 7.02
COc1cccc2[nH]c(C(=O)NCC3CCCO3)cc12 (centres unmarked) | 13
CCOC(=O)CNC(=O)N1CCCC(CNS(=O)(=O)Cc2ccccc2)C1 (centres unmarked) | 9.38
COc1nc(N(C)C)nc(N(C#N)S(=O)(=O)c2ccc(C)cc2)n1 | 20.5
Cc1ccc(SCCSc2ncccn2)cc1 | -2.38

SMILES | hERG current change (%, negative = inhibition) at 10uM [%]
O=C(COC(=O)CNC(=O)C12CC3CC(CC(C3)C1)C2)NC1CCS(=O)(=O)C1 (centres unmarked) | -30.5
CN1CSC(=S)N(C)C1 | 14.7
CCOc1ccc(N/C(N)=N/c2nc(CSc3nnnn3-c3ccccc3)cc(=O)[nH]2)cc1 | -4.22
Cc1ccc(C)c(S(=O)(=O)N2CCCC2CNC(=O)C(=O)NCc2ccccn2)c1 (centres unmarked) | -20
CCCc1nc2ccccc2c(=O)n1/N=C/c1ccccc1O | 6.95
O=C(CN1CCN(c2ccccc2)CC1)Nc1ccc2c(c1)CCC2 | -7.68
COc1cccc(CN(C)C(=O)c2cc(COc3ccc(-n4cncn4)cc3)on2)c1 | -79.9
Cc1cc(S(=O)(=O)N2CCCC(C(=O)Nc3ccc(C(=O)O)cc3)C2)ccc1Cl (centres unmarked) | 10.2
O=C(NCc1cccc(Cl)c1)c1cccc(S(=O)(=O)N2CCCCC2)c1 | 7.08
Brc1cnc2nc(SC/C=C/c3ccccc3)[nH]c2c1 | -3.38
COc1cc(OC)cc(C(=O)N2CCN(Cc3ccccc3C(F)(F)F)CC2)c1 | -15.2
CCOc1ccccc1C(=O)N(Cc1sccc1C)C1CCS(=O)(=O)C1 (centres unmarked) | -17.5
Cc1ccc(SCCSc2nc(C)cc(=O)[nH]2)cc1 | 14.1
COCCNC(=O)c1c[nH]c2ccc(S(=O)(=O)Nc3ccc(F)cc3F)cc2c1=O | 27.8
COc1ccc2cc(C)c3nnc(SCC(=O)Nc4cc(OC)c(OC)cc4C(=O)O)n3c2c1 | 16.7
CC(C)(C)NC(=O)/C(=C/c1ccccc1F)NC(=O)c1ccc([N+](=O)[O-])cc1 | -25.6
Cl.NC1C=CC=C(C(=O)O)C1 (centres unmarked) | 3.23
Cc1[nH]c2ccccc2c(=O)c1SC(F)(F)C(F)C(F)(F)F (centres unmarked) | -5.97
COc1ccc(NC(=O)Cn2nnc(C(=O)NCCc3ccccc3)c2N)c(OC)c1 | 3.71

SMILES | hERG current change (%, negative = inhibition) at 10uM [%]
COc1ccc(OC2C(=O)N(Cc3ccc(F)cc3)C2c2ccc(OC)c(OC)c2)cc1 (centres unmarked) | -13.6
Cc1nc2ccccc2nc1SCC(=O)c1ccccc1 | 16.3
C=CCN1C(=O)NC(=O)/C(=C/c2ccc(N(C)C)c(Br)c2)C1=O | 8.07
CCOc1ccc(-c2nc(C#N)c(N3CCN(Cc4ccccc4)CC3)o2)cc1 | 4.04
CCN(CC)CCOc1nnc(-c2ccc(OC)cc2)c2ccccc12 | -65
CN(Cc1ccccc1)C(=O)COC(=O)c1cc(Cl)nc(Cl)c1 | -5.63
CN(CC(=O)Nc1ccccc1Cl)C(=O)COC(=O)c1ccc(C(F)(F)F)cc1 | -9.53
COc1ccccc1OCCn1cc(/C=C(\C#N)C(=O)NCc2ccco2)c2ccccc21 | -1.19
CC1(C)CC(=O)C2=C(C1)Nc1ccccc1N=C2.Cl | -8.52
Cc1ccccc1N1C(=O)C2ON(c3ccccc3)C(c3ccco3)C2C1=O (centres unmarked) | 16.8
CC1CCCCC1NC(=O)c1ccc(NS(=O)(=O)c2ccc3[nH]c(=O)[nH]c3c2)cc1 (centres unmarked) | -4.17
COc1cc(NC(=O)COc2ccc(C)c(C)c2)ccc1NC(=O)c1ccco1 | -14.3
Cn1c(CCn2ccccc2=O)nc2cc(NC(=O)COc3ccccc3)ccc21 | -40.6
O=[N+]([O-])c1ccccc1/C=C/C=N/n1c(-c2ccccc2)n[nH]c1=S | 8.59
COc1ccc(OCC(=O)NNC(=O)c2ccc3c(=O)n4c(nc3c2)CCC4)cc1 | -5.54
O=C(CCC(=O)NCc1ccccc1)NCc1ccccc1 | 11.8
Cc1cc(C)n2nc(C(=O)NCC(=O)Nc3ccc(F)c(F)c3)nc2n1 | 4.9
COc1ccc(N2CCN(C(=O)CCn3nnc4ccccc43)CC2)cc1 | -3.96
